Changes are numbered by the printed parent chain. Each block holds one binder with its values, some of them ahead of it.
Target: poly-specificity reagent (PSR): detergent solubilized CHO cell membrane proteins
Experiment: PSR assay: molecule on protein A beads, biotinylated PSR, SA-PE read out by flow cytometry; + PSR panel

% of events in quadrant Q2 (PSR binding+): 0.15%
B1: AB1080 multispecific binding protein (bispecific antibody, V domains shown)
VH: EVQLVQSGGGVVQPGRSLRLSCAASGFTFSSYGMHWVRQAPGKCLEWVAVIWYDASNKYYGDSVKGRFTISRDNSKNTLYLQMNSLRDEDTAVYYCARRFTHLRGWYIEDYGLDVWGQGTTVTVSS
VL: EIVLTQSPSSLSASVGDRVTIT[in this place about 80 residues]FGCGTKVEIK

% of events in quadrant Q2 (PSR binding+): 18.1%
B2: AB1081 multispecific binding protein (bispecific antibody, V domains shown)
VH: B1 VH with T28A, A55E, K76R, H102N, Y107I
VL: EIVLTQSPSSLSASVGDRVTIT[in this place about 80 residues]FGCGTKVEIK

From patent US20240270861A1
